Scores with a large standard error are left out. The source holds two more conditions with little spread; they are left out. Names with del lack the residues named; names with ins carry added residues between the positions named. For part of these data: How much ogerin was present is not stated here.
B1: GPR68, Q15743 (parent)
chain: MGNITADNSSMSCTIDHTIHQTLAPVVYVTVLVVGFPANCLSLYFGYLQIKARNELGVYLCNLTVADLFYICSLPFWLQYVLQHDNWSHGDLSCQVCGILLYENIYISVGFLCCISVDRYLAVAHPFRFHQFRTLKAAVGVSVVIWAKELLTSIYFLMHEEVIEDENQHRVCFEHYPIQAWQRAINYYRFLVGFLFPICLLLASYQGILRAVRRSHGTQKSRKDQIQRLVLSTVVIFLACFLPYHVLLLVRSVWEASCDFAKGVFNAYHFSLLLTSFNCVADPVLYCFVSETTHRDLARLRGACLAFLTCSRTGRAREAYPLGAPEASGKSGAQGEEPELLTKLHPAFQTPNSPGSGGFPTGRLA

Columns and labels:
[1] = variants of: B1; assay: cAMP reporter score (Enrich2 score, wild type = 0); higher = more signal; HEK293T, FACS bins
[2] = variants of: B1; assay: surface expression score (Enrich2 score, wild type = 0); higher = more signal; HEK293T, FACS bins

Variant | cAMP reporter score ([1]; pH 5.5) | cAMP reporter score ([1]; pH 6) | cAMP reporter score ([1]; pH 6, modulator: ogerin) | cAMP reporter score ([1]; pH 6.5, modulator: ogerin) | surface expression score [2]
L248G | -1.3 | -0.39 | -1.06 | -0.359 | -1.88
L248H | -0.788 | -0.262 | -1.4 | -1.69 | -0.885
L248I | 0.94 | 1.52 | 0.722 | 1.23 | 0.215
L248K | -0.57 | -0.447 | -1.6 | -1.15 | -2.04
L248M | 0.163 | 0.422 | 0.02 | -0.074 | -0.255
L248N | 0.587 | -0.119 | -0.483 | -0.05 | 0.173
L248P | -1.85 | -1.69 | -2.74 | -1.74 | -2.57
L248Q | 1.05 | -0.385 | 0.397 | -0.383 | –
L248R | -1.64 | -0.717 | -1.74 | -1.11 | -2.27
L248S | -0.016 | -0.811 | -0.991 | -0.878 | 0.619
L248T | -1.28 | -0.79 | -1.29 | -1.57 | -1.5
L248V | -0.304 | -1.39 | -0.077 | -0.984 | -0.687
L248W | -0.942 | -0.418 | -1.5 | -1.31 | -1.65
L248Y | -0.863 | -0.596 | -0.92 | -0.591 | -2.09
L248_L249insGSG | -0.65 | -0.132 | -2.24 | -1.53 | -1.62
L248_V250del | -0.853 | -0.944 | -1.78 | -1.41 | -2.2
L249del | -0.43 | – | -0.7 | – | -0.411
V250_R251insG | -0.662 | – | – | – | -1.64
V250_S252del | -0.445 | -1.17 | -1.82 | -1.34 | -2.31
R251A | -2.3 | -1.11 | -1.39 | – | -0.221
R251C | -1.61 | -0.69 | – | -0.89 | -2.12

Variant | cAMP reporter score ([1]; pH 5.5) | cAMP reporter score ([1]; pH 6) | cAMP reporter score ([1]; pH 6, modulator: ogerin) | cAMP reporter score ([1]; pH 6.5, modulator: ogerin) | surface expression score [2]
R251D | -1.78 | – | -0.693 | -0.992 | –
R251E | -1.12 | -1.36 | – | -1.04 | -1.09
R251G | -1.4 | -0.3 | -1.29 | -1.65 | -0.417
R251H | -1.46 | -0.852 | -2.08 | -1.75 | -0.988
R251I | -0.71 | -0.466 | -0.966 | -0.627 | -0.045
R251K | -0.894 | -0.47 | -1.27 | -1.24 | -0.505
R251L | -2.66 | – | – | -0.903 | –
R251M | -1.54 | -0.522 | -1.42 | -1.26 | -1.15
R251N | -0.27 | -0.851 | -1.12 | – | 0.218
R251P | -1.23 | -0.048 | -1.92 | -0.966 | -1.51
R251S | -1.45 | -1.06 | -2.19 | -1.88 | -0.345
R251T | -1.4 | -0.643 | -1.9 | -1.55 | 0.399
R251V | -1.11 | -0.932 | -1.09 | -2.55 | -0.577
R251W | -1.34 | – | -1.55 | -1.39 | -0.438
R251Y | -1.52 | -1.68 | -1.54 | -1.51 | -1.2
R251_S252del | -1.6 | -1.2 | -1.99 | -1.17 | -2.21
R251_S252insGSG | -1.44 | -1.16 | -2.39 | -1.32 | -1.92
R251del | -1.71 | -1.79 | -2.23 | -1.11 | -2.38
S252_V253del | -1.69 | -1.12 | – | -0.866 | -2.62
S252_V253insGS | -1.71 | -0.299 | -2.37 | -1.13 | -1.43
S252_V253insGSG | -1.59 | -1.25 | -0.993 | -0.687 | -1.05

Variant | cAMP reporter score ([1]; pH 5.5) | cAMP reporter score ([1]; pH 6) | cAMP reporter score ([1]; pH 6, modulator: ogerin) | cAMP reporter score ([1]; pH 6.5, modulator: ogerin) | surface expression score [2]
S252_W254del | -1.4 | -0.478 | -1.52 | -0.807 | -2.71
S252del | 1.49 | 7.08 | 1.84 | 6.03 | -1.49
V253A | 0.754 | 0.316 | 1.42 | -0.006 | 0.493
V253C | 1.99 | -0.01 | -0.52 | -0.011 | -0.391
V253D | 0.297 | -0.849 | -0.747 | -0.203 | -1.85
V253E | 1.28 | – | 1.39 | -0.555 | 0.262
V253F | 0.64 | 2.29 | 0.229 | 0.908 | 0.407
V253G | 0.608 | 0.305 | 0.241 | 0.244 | -0.4
V253H | 0.387 | -0.187 | 0.451 | -0.417 | -0.061
V253I | 2.07 | 2.52 | 1.91 | 2.95 | 1.09
V253K | 1.12 | – | 1.11 | -0.071 | -0.193
V253L | -0.806 | -2 | -1.48 | -1.22 | -0.91
V253M | 0.149 | 0.127 | 0.129 | -0.321 | -0.114
V253N | -1.08 | -1.21 | -1.59 | -0.287 | -1.46
V253P | -0.422 | -1.46 | -2.19 | -1.02 | -1.8
V253Q | -0.238 | – | 0.14 | -1.73 | 0.222
V253R | 0.913 | -0.373 | 0.772 | -0.048 | 0.412
V253S | 0.615 | 0.287 | 0.84 | 0.335 | 0.046
V253T | 0.33 | – | 1.28 | 0.545 | 0.293
V253W | 1.02 | 2.68 | 1.82 | 0.892 | 2.07
V253_W254insGS | -1.24 | -1.57 | -1.68 | -1.6 | 0.362

Source: the GPR68 mutational scans of Howard et al. (2025)
